# Laboratory results reported in PMC4336329 (PLoS ONE, 2015).
# Hit rate of the full screen: of about 310,000 compounds, about 2,200 (0.71%) showed an effect of 50% or more. The effect is printed as a negative number. This is one part of the list.
# Target: human ether-à-go-go-related gene (hERG) potassium channel (human, UniProt Q12809)
# Assay: primary screen, population patch clamp on CHO cells stably expressing hERG
# human ether-à-go-go-related gene (hERG) potassium channel, sequence (Q12809 whole entry, looked up): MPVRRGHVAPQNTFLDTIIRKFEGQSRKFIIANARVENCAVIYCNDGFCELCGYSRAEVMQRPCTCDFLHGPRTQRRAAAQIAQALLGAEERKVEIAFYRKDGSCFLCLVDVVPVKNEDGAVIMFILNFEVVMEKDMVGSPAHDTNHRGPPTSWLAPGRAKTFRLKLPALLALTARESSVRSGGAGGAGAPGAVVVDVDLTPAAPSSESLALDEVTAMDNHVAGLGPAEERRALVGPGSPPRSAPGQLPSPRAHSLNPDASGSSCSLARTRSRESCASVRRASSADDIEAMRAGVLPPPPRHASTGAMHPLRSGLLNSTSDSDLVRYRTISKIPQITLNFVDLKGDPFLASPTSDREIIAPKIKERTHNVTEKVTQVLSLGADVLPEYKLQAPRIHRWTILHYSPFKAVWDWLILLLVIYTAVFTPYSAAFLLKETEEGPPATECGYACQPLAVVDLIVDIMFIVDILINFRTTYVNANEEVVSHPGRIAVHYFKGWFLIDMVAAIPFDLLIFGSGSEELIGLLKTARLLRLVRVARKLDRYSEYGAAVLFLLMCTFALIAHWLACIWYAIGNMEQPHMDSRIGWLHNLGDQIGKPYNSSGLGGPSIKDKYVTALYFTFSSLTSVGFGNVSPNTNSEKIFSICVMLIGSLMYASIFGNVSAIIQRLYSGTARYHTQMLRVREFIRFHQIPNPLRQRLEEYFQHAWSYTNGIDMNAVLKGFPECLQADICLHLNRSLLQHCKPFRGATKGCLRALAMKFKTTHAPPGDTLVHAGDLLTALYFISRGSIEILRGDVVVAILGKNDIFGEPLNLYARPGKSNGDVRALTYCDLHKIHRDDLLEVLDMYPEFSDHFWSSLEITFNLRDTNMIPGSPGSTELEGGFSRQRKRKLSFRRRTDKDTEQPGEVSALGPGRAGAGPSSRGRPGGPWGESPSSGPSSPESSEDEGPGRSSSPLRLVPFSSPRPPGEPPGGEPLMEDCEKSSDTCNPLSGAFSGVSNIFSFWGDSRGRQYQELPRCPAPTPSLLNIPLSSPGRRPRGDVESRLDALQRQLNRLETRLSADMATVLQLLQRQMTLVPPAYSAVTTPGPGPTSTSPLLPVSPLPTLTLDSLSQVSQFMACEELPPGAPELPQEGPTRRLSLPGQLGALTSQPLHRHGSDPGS
row,SMILES,"hERG current change (%, negative = inhibition) at 1uM"
1,CN1CCN(c2nc3cc(C(F)(F)F)ccc3n3cccc23)CC1.O=C(O)/C=C\C(=O)O,-3.43%
2,Cc1ccccc1Cn1nc(C)c(NC(=O)c2cc3n(n2)C(C(F)F)CC(C(F)F)N3)c1C (stereo not drawn),3.34%
3,Cc1cccc(NC(=O)CSc2nc3[nH]ncc3c(=O)[nH]2)c1,7.93%
4,Fc1ccccc1/C=N/Nc1ncnc2nc[nH]c12,11.4%
5,Cc1ccc(S(=O)(=O)N2CCCCC2)cc1C(=O)NCCC1=CCCCC1,6.03%
6,COCCN(C(=O)CCC(=O)Nc1nccs1)C(C(=O)NC(C)(C)C)c1ccc(F)cc1 (stereo not drawn),6.09%
7,CCN(CC)CC(=O)Nc1ccccc1SCC(=O)Nc1ccsc1C(=O)OC,3.73%
8,COc1nc(NCC2CCCO2)nc(N2CC3CC(C2)c2cccc(=O)n2C3)n1 (stereo not drawn),6.44%
9,COc1ccc(CNCCC(c2ccc(OC)cc2)c2ccccc2OC)cc1 (stereo not drawn),-29.8%
10,COc1cc(Cl)ccc1OCc1cc(C(=O)N(C)CCc2cnn(C)c2)no1,-1.69%
11,Cn1c(=O)n(Cc2ccccc2Cl)c(=O)c2c1[nH]c(=S)n2C,10.8%
12,CC1(C)CC(=O)C2=C(C1)N(c1ccc(F)cc1)C(=O)CC2c1ccccc1 (stereo not drawn),13.2%
13,Cc1ccc(N2C(=O)C3Sc4[nH]c(=O)sc4C(c4ccccc4)C3C2=O)cc1 (stereo not drawn),12%
14,O=C(Cc1ccccc1)Oc1cccc(N2C(=O)CCC2=O)c1,14.8%
15,O=C(NC1CCCc2ccccc21)c1ccc(Cl)nc1 (stereo not drawn),9.37%
16,COc1ccc(CN(C)C(=O)C2CCN(C(=O)Nc3ccccc3)CC2)cc1,-7.59%
17,CC(=O)c1n[nH]nc1NC(=O)c1ccccc1,3.71%
18,COc1ccc(C(=O)N2CCC(C(=O)Nc3ccc4c(c3)OCCO4)CC2)cc1,-13.1%
19,CN1CCc2cccc(Cl)c2CC1.Cl,8.79%
20,COc1cccc(NC(=O)c2ccc3c(O)c(S(=O)(=O)c4ccccc4)c(=O)[nH]c3c2)c1,13.3%
21,CCOc1ccccc1NS(=O)(=O)c1c(C)[nH]c(C)c1C(=O)N1CCCCC1,7.93%
22,O=S1(=O)[C@H]2C[C@@H]3C=C[C@@]2(CN1Cc1ccc(F)cc1)O3,-1.84%
23,COc1ccc(-c2nc(NC(C)=O)sc2-c2ccccc2)cc1,26.8%
24,COc1ccccc1CNC(=O)CN(C)S(=O)(=O)c1ccc2c(c1)c(=O)n(C)c(=O)n2C,14.7%
25,Cc1cccc(C)c1NC(=O)CNC(=O)c1ccc(S(=O)(=O)NCc2ccco2)cc1,8.87%
26,COc1ccc(/C=C/C(=O)NCCSCc2ccco2)cc1OC,14.5%
27,O=C(c1cc(Cl)nc2ccccc12)N1CCN(S(=O)(=O)c2ccccc2[N+](=O)[O-])CC1,4.54%

row,SMILES,"hERG current change (%, negative = inhibition) at 1uM"
1,CCOC(=O)c1cnc(COc2ccc(OC)cc2)[nH]c1=O,6.43%
2,Clc1cccc(Cl)c1CSc1nnc(CN2CCOCC2)n1-c1ccccc1,1.02%
3,CCOC(=O)N1CCN(C(=O)CN2C(=O)CC(C)(C)S(=O)(=O)c3ccccc32)CC1,14.7%
4,CCCCOc1cccc(C(=O)NC(=S)Nc2cccc(NC(=O)c3ccccc3Cl)c2)c1,2.46%
5,CCC(CC)c1nnc(NC(=O)c2ccc([N+](=O)[O-])cc2)s1,8.05%
6,CCOC(=O)c1c(S(=O)(=O)NCc2cccs2)c(C)n(C)c1C,7.18%
7,Cc1cccc(Cl)c1NC(=O)N1CCCN(c2nc3ccc(Cl)cc3s2)CC1,5.09%
8,COc1ccc([C@@H]2[C@@H]3C(=O)N(C(C)(C)C)C(=O)[C@@H]3[C@]3(Cc4ccc(Cl)cc4)C(=O)N(c4cccc(C)c4)C(=O)N23)cc1,15%
9,Cc1ccc2nc(NC(=O)CS(=O)(=O)Cc3ccccc3)sc2c1,13.8%
10,C=CCc1ccc2oc(C(=O)OCC)cc(=O)c2c1O,12.2%
11,COc1cccc(C2CC(c3ccc(NS(C)(=O)=O)cc3)=NN2C(=O)c2ccccc2)c1OC (stereo not drawn),-8.83%
12,CC(C)c1ccc(NC(=O)CSc2n[nH]c(=O)n2-c2ccc3c(c2)OCCO3)cc1,7.34%
13,CN1CCN(C(=O)c2ccc(N(Cc3ccc(Cl)cc3)S(C)(=O)=O)cc2)CC1,11.9%
14,CCn1c2ccc(Cl)cc2c2nc3ccccc3nc21,13%
15,O=C1CC(c2ccccc2)CC(O)=C1C=NCCCN1CCOCC1 (stereo not drawn),-4.01%
16,CN(CCCC1CCCC1)C(=O)CC1C(=O)NCCN1Cc1ccc(F)cc1 (stereo not drawn),9.35%
17,Cc1cccc(N2CCN(C(=O)C(NS(=O)(=O)c3cccs3)c3ccccc3)CC2)c1C (stereo not drawn),2.45%
18,CC1CC(C)CN(S(=O)(=O)N2CCCC(C(=O)NCCCN3CCOCC3)C2)C1 (stereo not drawn),15%
19,COc1cc(CN2CCC(C(=O)NC3CCCC3)CC2)ccc1O.O=C(O)C(=O)O,17.5%
20,O=C(Nc1ccc2nc(-c3ccccc3)oc2c1)c1ccco1,6.22%
21,CCCc1cc(C(=O)Nc2ccccc2C(=O)OC)no1,11.3%
22,COCc1ccc(C(=O)N2CCCC(Nc3ccc(C(C)C)cc3)C2)s1 (stereo not drawn),14.2%
23,N#Cc1ccccc1NC(=O)c1ccccc1OCC(=O)NCc1ccco1,4.77%
24,COc1cccc(NC(=O)CCCCCN2C(=O)[C@@H]3Cc4ccccc4CN3C2=O)c1,4.78%
25,CS(=O)(=O)NNC(=O)c1sccc1OCc1ncc(C(F)(F)F)cc1Cl,17.9%
26,O=C(COC(=O)CCC(=O)c1ccc(F)cc1)Nc1ccc(N2CCOCC2)cc1,10.7%
27,CC1Cc2ccccc2N1C(=O)Cn1nnc(-c2ccccc2NC(=O)C2CCC2)n1 (stereo not drawn),7.91%
